Assay results as given in the supplement of paper PMC3334620.
Over roughly 33,000 sequences, “E-score (-0.5 to 0.5)” has its median near -0.021; the highest 2% begin near 0.32. The list shows a part of the results.

Biological target: T1, Zap1 (UniProt P47043)
T1 sequence: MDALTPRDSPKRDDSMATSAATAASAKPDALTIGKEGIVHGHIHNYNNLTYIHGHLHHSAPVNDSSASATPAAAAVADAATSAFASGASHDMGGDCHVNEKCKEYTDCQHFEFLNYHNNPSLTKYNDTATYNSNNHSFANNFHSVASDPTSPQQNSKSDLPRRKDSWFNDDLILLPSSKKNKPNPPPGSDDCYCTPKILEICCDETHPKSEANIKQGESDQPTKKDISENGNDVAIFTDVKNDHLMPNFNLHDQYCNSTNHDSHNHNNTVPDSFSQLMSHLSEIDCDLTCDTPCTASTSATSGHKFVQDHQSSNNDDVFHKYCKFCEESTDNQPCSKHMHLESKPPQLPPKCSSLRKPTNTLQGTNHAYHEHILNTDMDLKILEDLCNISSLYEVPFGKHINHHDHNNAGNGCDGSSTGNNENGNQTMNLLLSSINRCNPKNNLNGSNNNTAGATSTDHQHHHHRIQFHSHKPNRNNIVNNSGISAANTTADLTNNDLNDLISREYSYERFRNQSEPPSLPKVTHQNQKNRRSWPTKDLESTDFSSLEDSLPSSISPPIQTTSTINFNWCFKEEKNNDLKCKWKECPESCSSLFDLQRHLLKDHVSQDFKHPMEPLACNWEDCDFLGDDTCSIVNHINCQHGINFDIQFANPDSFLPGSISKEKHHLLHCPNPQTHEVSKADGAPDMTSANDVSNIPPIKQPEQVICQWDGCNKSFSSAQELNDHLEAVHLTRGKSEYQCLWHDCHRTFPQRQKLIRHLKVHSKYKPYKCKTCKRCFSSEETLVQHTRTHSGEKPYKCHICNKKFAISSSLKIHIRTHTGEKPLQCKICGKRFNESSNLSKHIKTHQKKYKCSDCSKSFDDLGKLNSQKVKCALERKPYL
Assay: PBM E-score (8-mer binding enrichment) (E-score (-0.5 to 0.5)); higher = stronger / more preferred TF binding; most listed sequences are background and not binding sites
Conditions: protein concentration: 200 nM; construct: GST-full length
How it was run: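 Universal all-10-mer Agilent arrays, double-stranded by primer extension on fresh or once-stripped slides, were probed with about 100-200 nM GST-tagged yeast transcription factors made by PURExpress. Fluorescent anti-GST detected bound protein, and masliner normalised the scans. E-scores from the Universal PBM Analysis Suite were given to each ungapped eight-base word pooled with its reverse complement.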

| Sequence | PBM E-score |
| --- | --- |
| CCGAGATA | 0.117 |
| AAACCGCG | 0.207 |
| CGAGCAAA | -0.192 |
| CCTCGGCA | -0.125 |
| ACAACAAA | 0.158 |
| CTCTGGAA | -0.0494 |
| TCCCGGGA | -0.0942 |
| ACTACTTA | -0.0303 |
| AAGCACCG | -0.118 |
| ATAGGGAT | -0.0647 |
| CACTGGAC | -0.173 |
| GCGCCTGA | -0.0916 |
| CGACGGAA | -0.0518 |
| GCGAGGAC | -0.342 |
| GTCACAAC | 0.18 |
| AGTTCATA | 0.17 |
| CTTGCTTC | -0.123 |
| CCCCTAGA | 0.147 |
| AGAAATCA | 0.0647 |
| CCACACAC | 0.0659 |
| AACGCGCG | 0.113 |
| CTCCGGAC | -0.133 |
| GACGGTCA | 0.0797 |
| GGTCTCGA | 0.0376 |
| ACCGAGGC | 0.0469 |

| Sequence | PBM E-score |
| --- | --- |
| GGGATACA | 0.00931 |
| GGCAGCGA | -0.251 |
| ATGGAAAT | -0.012 |
| ATTCGATG | 0.0324 |
| ATCGCTCA | -0.0114 |
| CATAGGTA | 0.116 |
| ACAGCCCA | -0.0608 |
| ATTTGAGC | -0.0529 |
| CGATGCAA | -0.181 |
| CCGACCGG | 0.0475 |
| ATGACATA | -0.00363 |
| AGTGTGCA | -0.0496 |
| CTGGCGGC | 0.00103 |
| ACGTTGAT | 0.0438 |
| CAAGACGA | -0.0833 |
| GTAGCGTA | -0.0662 |
| GAGAACCC | 0.188 |
| ATACTTTG | 0.0158 |
| GGTCGTGA | 0.0142 |
| TCAATGGA | -0.0393 |
| CTCTTATA | 0.0902 |
| AATTATCT | 0.0556 |
| AGATGCAG | -0.1 |
| CAGTGCAC | -0.122 |
| AAAAACAC | 0.293 |

| Sequence | PBM E-score |
| --- | --- |
| ACCTGACC | 0.138 |
| GACCCCAC | 0.243 |
| AAGGCTGA | 0.0306 |
| AAATTGTG | -0.0758 |
| AAGAACAC | 0.0512 |
| AGCACAAC | 0.131 |
| CTGGTTTC | 0.124 |
| ACCGAACT | 0.159 |
| CAGCGCAG | -0.221 |
| CACGCTGA | -0.0804 |
| AAGACTCG | -0.202 |
| CAAGACCC | 0.146 |
| CCGCGGCG | 0.0337 |
| GACGCCTA | -0.233 |
| CCAGTGAA | -0.147 |
| TCCCCAAA | 0.042 |
| AATACAGC | -0.0738 |
| CTGATCGA | -0.171 |
| CGATTGTC | -0.114 |
| CAAAAGCC | -0.196 |
| GAAGGTAC | 0.178 |
| AGGTCGTG | 0.353 |
| ACTTCATC | -0.216 |
| AGGCCACA | 0.0371 |
| GTGGCCCA | 0.157 |

| Sequence | PBM E-score |
| --- | --- |
| AGGTAATA | 0.263 |
| ATCCCTCG | -0.168 |
| ATTCTTCG | -0.0916 |
| GTTTGGTA | 0.291 |
| CCTCACAG | 0.204 |
| CGTGATAA | 0.122 |
| GAGGCCAC | 0.0991 |
| AGTTCACC | 0.0548 |
| CTGCATAA | 0.0747 |
| AAAGCCTT | -0.092 |
| CAATGATA | 0.0803 |
| CTCATACC | 0.0957 |
| GATTGGGA | -0.146 |
| GATGTCGC | -0.221 |
| CGCTAGTA | 0.0755 |
| CTGGTGGC | -0.188 |
| ACTTCTTG | 0.00157 |
| AATCTCAG | -0.183 |
| GCTTCACA | -0.0875 |
| ATTATGAA | 0.14 |
| AGTCGCAT | -0.187 |
| GCTCAAAC | -0.0646 |
| GCGAGCAC | -0.175 |
| GTGTTCGA | -0.0237 |
| CGTTTTCA | 0.12 |

| Sequence | PBM E-score |
| --- | --- |
| ATAAAATA | 0.155 |
| CCGCCCCG | 0.341 |
| AAACGTCC | -0.106 |
| ACGATGCG | -0.223 |
| AAGTAGAT | -0.0639 |
| CGCTCACG | -0.0384 |
| AACGTACG | -0.213 |
| ACGTGAAT | -0.0698 |
| ACTGCCTG | -0.197 |
| CGTCTACC | 0.136 |
| GCGGCTAC | 0.162 |
| GTTCCGCA | -0.00016 |
| AGGTGGAC | -0.283 |
| GAACGGTA | 0.121 |
| CCAGTACA | 0.0202 |
| AATTGGCA | -0.224 |
| AGGGGTTC | 0.173 |
| ATCTTGAC | -0.0181 |
| GGTCCAGA | -0.0479 |
| CGTGAATC | 0.00746 |
| AATCAAAA | 0.0827 |
| CCGCGCAC | 0.0105 |
| ACGTAGTC | -0.166 |
| CCCGCCGG | 0.0616 |
| CAATTAAC | 0.143 |

| Sequence | PBM E-score |
| --- | --- |
| GAGGCAGA | -0.214 |
| ACGCAGCC | -0.18 |
| AAAAGCCG | 0.0156 |
| AAATTAGT | 0.134 |
| CCAGTGCC | -0.21 |
| ATTTTGCA | -0.0355 |
| GACCGGCC | -0.007 |
| AGCCGTAT | -0.00761 |
| CGGGAAAA | 0.0146 |
| CCTATAAA | -0.13 |
| GCCGGCGA | -0.292 |
| GACAACAA | 0.0759 |
| AATTTTCC | 0.108 |
| GAGTGCAC | -0.136 |
| AGTGAAGA | -0.283 |
| AGAGATAT | -0.153 |
| AGCGGAAG | -0.261 |
| AGCCATGA | -0.0626 |
| AACATTTA | 0.143 |
| GGGAGCCC | -0.138 |
| AAAGAACA | 0.223 |
| CTGTTGTA | 0.095 |
| TAACTTCA | 0.19 |
| CAGATTAG | -0.13 |
| TAGACACA | -0.096 |

| Sequence | PBM E-score |
| --- | --- |
| AGTTGTCA | 0.197 |
| TCTATCCA | -0.102 |
| ACTTATCA | -0.124 |
| ATAAGGGG | -0.0173 |
| TAATGCCA | -0.0133 |
| GCCTCAAC | 0.0422 |
| ACTTCCTG | -0.00882 |
| CGATGCAG | -0.138 |
| GAATCAAA | 0.0114 |
| ATACTTAC | 0.133 |
| AAGAAGAA | -0.00276 |
| GCGATATA | -0.0223 |
| ATGTCGCA | -0.0839 |
| CAGAGGGA | -0.236 |
| AGTCGTTG | -0.159 |
| ATACGCGC | -0.0945 |
| CGGAACAC | 0.0931 |
| CCTACCGC | 0.148 |
| AGGTGTTC | 0.0381 |
| CAGGGGGG | -0.22 |
| AGCTATTG | 0.0683 |
| TCTTACCA | 0.0272 |
